# In paper PMC7819943, “Rice protein-binding microarrays: a tool to detect cis-acting elements near promoter regions in rice”:
# The other results are listed elsewhere or left out.
# Molecular target: T1, OsWOX13 (Oryza sativa, UniProt Q5QMM3 1-267)
# T1 sequence: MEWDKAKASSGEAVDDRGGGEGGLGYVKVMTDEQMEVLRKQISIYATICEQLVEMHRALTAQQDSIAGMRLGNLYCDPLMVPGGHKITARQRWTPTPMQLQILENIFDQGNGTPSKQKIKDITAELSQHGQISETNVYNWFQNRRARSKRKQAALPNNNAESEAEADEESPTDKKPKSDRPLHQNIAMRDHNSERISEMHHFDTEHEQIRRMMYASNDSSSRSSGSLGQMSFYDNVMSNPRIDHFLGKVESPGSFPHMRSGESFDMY
# Assay: protein-binding microarray (RPBM); PBS, 2% BSA, 51.3 ng/ul salmon testes DNA, 50 uM zinc acetate, 200 nM TF, 25 C, 1 h; high values mean tight binding
# Conditions: protein: recombinant; tags: N-terminal polyhistidine and DsRed monomer fusion (pET32a); label: CyDye5-dUTP incorporated in the synthesized complementary strand; 3' TTTTT single-stranded linker to array surface; dsDNA, one strand shown
# Summary of the method: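 Binding signal is defined as the fluorescence intensity of each feature in arbitrary units, read on an Axon 4000B scanner. Transcription factors with N-terminal polyhistidine and DsRed fusions came from E. coli BL21-CodonPlus and were purified on Ni–NTA. They were incubated at 200 nM for 1 h at 25 °C on a custom Agilent array that had been made double-stranded with Cy5-dUTP, with 50 µM zinc acetate present, and the array was washed.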
row,Sequence,binding signal
1,ACAAAATCATTTGTACGATGATATTTTATTAAACTTGCACCGGAGTCACCTAGTGCAG,7050 fluorescence intensity (a.u.)
2,CTTACTAAATTGCAATATGCACTGGCGGCGTCGTCAGCACCGGAGTCACCTAGTGCAG,9000 fluorescence intensity (a.u.)
3,CATCTGGTGTCAATTAATTAGATCCAGAGAAAAGGAGAGGCGGAGTCACCTAGTGCAG,18500 fluorescence intensity (a.u.)
4,GTTAAAGATTGGATTCCTGAAGGAGGATATAGCACCAACCCGGAGTCACCTAGTGCAG,6190 fluorescence intensity (a.u.)
5,TTGCTGGAGCGGATTTGATTGGAAGTTCCCAAGTCGAGGTCGGAGTCACCTAGTGCAG,7820 fluorescence intensity (a.u.)
6,GCTGATTAGGCGCTGGTGTGCTGCCTGAGAGCTTAGACCACGGAGTCACCTAGTGCAG,20600 fluorescence intensity (a.u.)
7,AGCCATTAGCTCATGATTAATTGAGTATTAACTATTTTAACGGAGTCACCTAGTGCAG,8400 fluorescence intensity (a.u.)
8,CCGATGATGATATGAAACAGACGATCGCGGTTCTTGGCTACGGAGTCACCTAGTGCAG,9240 fluorescence intensity (a.u.)
9,CAAGTTGATTTCTATGATATGTGCCAAGTAGTCGAGAGCCCGGAGTCACCTAGTGCAG,13900 fluorescence intensity (a.u.)
10,ATGTGATTAAATGGAGGGTTTTCGGGGAGGGTTTTCGGGGCGGAGTCACCTAGTGCAG,23100 fluorescence intensity (a.u.)
11,AGGAAAATGACGGCACTCATTGACGATAAATTAACTTGTGCGGAGTCACCTAGTGCAG,7260 fluorescence intensity (a.u.)
12,CCTCTGCAATAACTATGATCATTGATAAGCTGCTGAACAGCGGAGTCACCTAGTGCAG,3780 fluorescence intensity (a.u.)
13,CAAGTGTGGATTTGATTTATTAATTAGTCTCTTTCTGTCGCGGAGTCACCTAGTGCAG,9210 fluorescence intensity (a.u.)
14,GGCCCATATAAATTAAATATTATTTGCATAGTCAAAGCCGCGGAGTCACCTAGTGCAG,4700 fluorescence intensity (a.u.)
15,TTGTGATTATTATTTTCGGGATTGCTATCTGTCATTCGAACGGAGTCACCTAGTGCAG,29100 fluorescence intensity (a.u.)
16,GTTCATTAAATCTATAATTGAATATATTTCATAATATATTCGGAGTCACCTAGTGCAG,4610 fluorescence intensity (a.u.)
17,AGTCTATCTTTAATTAGATAAAGTAGTCTATTAGCTACGTCGGAGTCACCTAGTGCAG,8670 fluorescence intensity (a.u.)
18,CCAGGATTGTCATGAAATTGCTAATTAACGACTAGTTGTGCGGAGTCACCTAGTGCAG,41900 fluorescence intensity (a.u.)
19,TGCTAAATGACACTTTCGGCTCAATTGAAAAGAAAAGTTCCGGAGTCACCTAGTGCAG,5830 fluorescence intensity (a.u.)
20,TTATCTATTAATTGGTTTTGCTGCCCTTGCAACATTATATCGGAGTCACCTAGTGCAG,17200 fluorescence intensity (a.u.)
21,AAACTGATTGACGGTTTTCTTTCTAAAACTGATTTTCAGGCGGAGTCACCTAGTGCAG,43200 fluorescence intensity (a.u.)

row,Sequence,binding signal
1,ATGATTGATCGATCATCAAGCTAAAGATAATGCTATGCAACGGAGTCACCTAGTGCAG,55100 fluorescence intensity (a.u.)
2,TCACAAAATAATTAACTTTAAAATTAAATTTTAGCAGCAGCGGAGTCACCTAGTGCAG,15100 fluorescence intensity (a.u.)
3,TCTGATAATTGTTCCATAATCCTGTGTCTGAATACACTTGCGGAGTCACCTAGTGCAG,31000 fluorescence intensity (a.u.)
4,GAAGTTATGTGTGATTTGTTATATATCCGTTGGCGTAACACGGAGTCACCTAGTGCAG,4460 fluorescence intensity (a.u.)
5,TTTGATTAATTCAGTGCTTCCTTCCCGTTACATTACACTGCGGAGTCACCTAGTGCAG,54000 fluorescence intensity (a.u.)
6,ATCTAGATATATATATTAAATTAACATCATTATAAACGTGCGGAGTCACCTAGTGCAG,6350 fluorescence intensity (a.u.)
7,GCCCCTAATAGACGAATTCCGAGTCCGGTGTGACCGGCGTCGGAGTCACCTAGTGCAG,9630 fluorescence intensity (a.u.)
8,GAATCATTCTGCCAATTAAGCAACACAATCATGGAGGACACGGAGTCACCTAGTGCAG,11800 fluorescence intensity (a.u.)
9,TAATTAAATAGAAGCATGAATTGCTTCTCATGTTTGCTCGCGGAGTCACCTAGTGCAG,3620 fluorescence intensity (a.u.)
10,CCCAAAGTGATTATAAATTTGCACCCATCTATTGGCACATCGGAGTCACCTAGTGCAG,37300 fluorescence intensity (a.u.)
11,GGTTGACTGATCGCAATAACATGAGTGCTTTGATTCATCACGGAGTCACCTAGTGCAG,27900 fluorescence intensity (a.u.)
12,GATGATTTTGGGTTCACGAGGCATAGCATTTCTAGTTCACCGGAGTCACCTAGTGCAG,10400 fluorescence intensity (a.u.)
13,ACCAATAATTAACCGGATAGCCATAAAAGCTCACACACTTCGGAGTCACCTAGTGCAG,13900 fluorescence intensity (a.u.)
14,AAATATAGATAGATTGGTAGGTAGACTCTGAGAGTCAGATCGGAGTCACCTAGTGCAG,38000 fluorescence intensity (a.u.)
15,ATAAATTACATAAACAATATGTAAATCAAGTGATTACATTCGGAGTCACCTAGTGCAG,20900 fluorescence intensity (a.u.)
16,ACGACCTCCATTGATTAACTACGTGCGTGTGAGAAACTAACGGAGTCACCTAGTGCAG,3720 fluorescence intensity (a.u.)
17,CTGCGCATATCTTAAGATTGATAAAGCCATTATGGGCGTCCGGAGTCACCTAGTGCAG,4120 fluorescence intensity (a.u.)
18,CAAACACCTCCTGTTTTGATTGGTGATGCACACTAACAAGCGGAGTCACCTAGTGCAG,5020 fluorescence intensity (a.u.)
19,AAGTTATATATATTGATGATTTATACAACTTTGTTGGTGACGGAGTCACCTAGTGCAG,3620 fluorescence intensity (a.u.)
20,GCAGCACAGCTTAATCAATTACCCTTGCATCGACCATAGCCGGAGTCACCTAGTGCAG,3300 fluorescence intensity (a.u.)
21,ATTACATAGATTACGTGTAAAATTGTGAGACGAATCTTTTCGGAGTCACCTAGTGCAG,4690 fluorescence intensity (a.u.)
